# Data published in PubChem BioAssay AID588453 (National Center for Advancing Translational Sciences (NCATS), 2011).
# Out of some 390,000 compounds screened, about 4,000 (1%) were called active. Inconclusive results, whose numbers are uncertain, are shown with a selection of clear calls. Calls follow the shape of the dose curve; as a rule, active = well fitted inhibition curve with a large enough effect; inconclusive = small, poorly fitted or top-dose-only effect; inactive = no such curve, though single readings can be large or run the other way. Potencies of inconclusive entries are doubtful fits and often do not repeat.
# Molecular target: Thioredoxin reductase 1, cytoplasmic (Rattus norvegicus) (UniProt O89049)
# UniProt O89049, sequence (O89049 whole entry, looked up): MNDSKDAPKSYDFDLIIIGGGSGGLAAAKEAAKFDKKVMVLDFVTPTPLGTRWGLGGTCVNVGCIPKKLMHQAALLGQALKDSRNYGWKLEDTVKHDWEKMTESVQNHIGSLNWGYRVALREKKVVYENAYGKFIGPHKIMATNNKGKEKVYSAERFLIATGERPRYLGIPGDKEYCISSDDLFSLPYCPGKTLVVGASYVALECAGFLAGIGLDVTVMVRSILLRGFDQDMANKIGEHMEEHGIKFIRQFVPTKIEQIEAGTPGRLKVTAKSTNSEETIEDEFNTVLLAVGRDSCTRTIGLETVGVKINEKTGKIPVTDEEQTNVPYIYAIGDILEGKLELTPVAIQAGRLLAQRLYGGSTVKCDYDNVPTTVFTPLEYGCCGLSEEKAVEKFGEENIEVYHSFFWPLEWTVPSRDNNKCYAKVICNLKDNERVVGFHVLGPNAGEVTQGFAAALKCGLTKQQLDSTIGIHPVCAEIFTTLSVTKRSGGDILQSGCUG
# Test: qHTS Assay for Inhibitors of Mammalian Selenoprotein Thioredoxin Reductase 1 (TrxR1): qHTS; also: nearly all actives have a fitted effect of over 65% in size
# Conditions: recombinant rTrxR1, NADPH fluorescence consumption, selenite substrate; series mostly up to 114 µM; activity change, negative = inhibition: at the top concentration
# Method in brief: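 Rat TrxR1 (90 nM in the dispensed reagent) was pre-reduced with 400 uM NADPH for 5 min at room temperature, then incubated with compound for 15 min. After 400 uM selenite was added, NADPH fluorescence (Ex 340/Em 450 nm) was followed for 8 min.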
# % is scaled to controls: 0 for no effect and ±100 for the full control effect; potency is read from the fitted curve at half-maximal effect; tags tell the direction and shape of the fitted curve.
SMILES,Potency,"activity change, negative = inhibition"
O=c1cc(N2CCOCC2)[nH]c(=O)n1-c1ccc(Br)cc1,"inconclusive: 39.8 µM [inhibitor, partial curve]",–
Cc1c(NC(=S)/C=C2\N(C)c3ccccc3C2(C)C)c(=O)n(-c2ccccc2)n1C,"inconclusive: 70.8 µM [inhibitor, partial curve]",–
CCCCC(=O)Nc1ccc(C(=O)Nc2ccc(S(=O)(=O)Nc3ccc(C)cc3)cc2)cc1,–,inactive: 10.1%
O=C(COC(=O)c1ccc([N+](=O)[O-])o1)c1ccccc1,"inconclusive: 50.1 µM [inhibitor, partial curve, poor fit]",–
CCOC(=O)C1CCN(c2c(NCc3ccc(C(=O)NC(C)CC)cc3)c(=O)c2=O)CC1 (configuration not stated),–,inactive: 3.43% [at 57.1 µM]
O=C(/C=C/c1ccccc1F)c1cccc([N+](=O)[O-])c1,"inconclusive: 39.8 µM [inhibitor, partial curve]",–
CCC(C)(C)n1nnnc1C(c1cc2cc(C)ccc2[nH]c1=O)N1CCCc2ccccc21 (configuration not stated),"inconclusive: 44.7 µM [inhibitor, partial curve]",–
CC(C)(C)C(=O)Nc1nc(=S)ss1,"inconclusive: 39.8 µM [inhibitor, partial curve]",–
O=C(/C=C/c1cc[n+](CC(=O)c2ccc3cccc4c3c2CC4)cc1)c1ccc2cccc3c2c1CC3,"inconclusive: 6.31 µM [inhibitor, full curve]",–
CN(C(=O)CCl)C1CCCc2ccccc21 (configuration not stated),"inconclusive: 11.2 µM [inhibitor, full curve, poor fit]",–
Cc1cc(-c2ccccc2)nc2cc(C(=O)NCc3ccco3)nn12,"inconclusive: 70.8 µM [inhibitor, partial curve, poor fit]",–
CCN(CC)CCNC(=O)c1cc(-c2cccnc2)nc2ccc(S(=O)(=O)N3CCC(C)CC3)cc12,–,inactive: 0.845%
COc1ccccc1NC(=O)c1ccc(-n2ccnc2)c([N+](=O)[O-])c1,–,inactive: 12.5% [at 57.1 µM]
Cc1cccc(-c2nc3c(c(SCc4ccccc4Cl)n2)Cc2c(CO)cnc(C)c2O3)c1,–,inactive: -7.76%
COc1ccc(C(=O)O)cc1NC(=S)NC(=O)C(c1ccccc1)c1ccccc1,–,inactive: -24.1%
O=C1C2ON(c3ccc(Cl)cc3)C(c3ccco3)C2C(=O)N1c1ccccc1 (configuration not stated),"inconclusive: 17.8 µM [inhibitor, partial curve, poor fit]",–
O=C(NC(=S)Nc1ccc(Br)c(Cl)c1)C1CC1,"inconclusive: 15.8 µM [inhibitor, full curve]",–
CN(C(=O)c1sc2nc(N3CCOCC3)c3c(c2c1N)CCCC3)c1ccccc1,"inconclusive: 28.2 µM [inhibitor, single point]",–
Cc1cc(C)cc(NC(=O)c2cccc(C(=O)Nc3cc(C)cc(C)c3)n2)c1,–,inactive: 6.91% [at 57.1 µM]
CN=c1sc2c(n1C)C(=O)c1ccccc1C2=O,"inconclusive: 79.4 µM [inhibitor, single point]",–
O=C(C[N+]12CCCc3cccc(c31)CCC2)c1ccccc1,"inconclusive: 2.24 µM [inhibitor, full curve, poor fit]",–
COc1cc2c(cc1OC)CN(C1CCCN(Cc3cccc(C(C)=O)c3)C1)CC2 (configuration not stated),"inconclusive: 56.2 µM [inhibitor, partial curve, poor fit]",–
O=C(CSc1ccc(-c2ccc(F)cc2)nn1)NCc1ccco1,–,inactive: -4.6%

SMILES,Potency,"activity change, negative = inhibition"
CC(=O)c1ccc(N2CCN(C(=O)C(=O)c3c(C)[nH]c4ccccc34)CC2)cc1,"inconclusive: 79.4 µM [inhibitor, single point]",–
Nc1ccc(N2CCCCC2)c2nonc12,"inconclusive: 44.7 µM [inhibitor, partial curve]",–
O=C(COC(=O)c1ccc([N+](=O)[O-])o1)Nc1cccc(S(=O)(=O)N2CCOCC2)c1,"inconclusive: 10 µM [inhibitor, partial curve]",–
CCCCCCCCCC[n+]1ccc(/C=C/c2c(C)[nH]c3ccccc23)cc1,"inconclusive: 79.4 µM [inhibitor, single point]",–
COc1ccc(NC(=S)NC(=O)c2cncc(Br)c2)cc1,"inconclusive: 22.4 µM [inhibitor, single point]",–
Brc1ccc(CNCc2cccs2)cc1,–,inactive: -10.1%
CCOc1ccc(CCNC(=O)c2cc3c(s2)-c2ccccc2OC3)cc1OCC,"inconclusive: 79.4 µM [inhibitor, partial curve, poor fit]",–
CCCc1nc(N)c(C#N)c(-c2ccco2)c1CC,"inconclusive: 15.8 µM [inhibitor, partial curve]",–
CCC(C)(C)n1nnnc1C(C(C)C)N(CCN1CCOCC1)Cc1cc2cccc(C)c2[nH]c1=O (configuration not stated),"inconclusive: 79.4 µM [inhibitor, single point]",–
C=C(C1=CCN(S(=O)(=O)C(C)(C)C)[C@@H]1CCO)c1ccccc1,"inconclusive: 44.7 µM [inhibitor, partial curve]",–
CN(Cc1ccco1)C(=O)Cn1cc(S(=O)(=O)N2CCCC2)c(S(=O)(=O)N2CCCC2)c1,"inconclusive: 44.7 µM [inhibitor, partial curve, poor fit]",–
Cn1c(Cn2nnc3ccccc32)nnc1SCC(=O)c1ccccc1F,"inconclusive: 44.7 µM [inhibitor, partial curve]",–
O=c1ccn([C@@H]2O[C@H](CNCc3ccc(-c4cc(C(F)(F)F)ccc4Cl)o3)[C@@H](O)[C@H]2O)c(=O)[nH]1,"inconclusive: 50.1 µM [inhibitor, partial curve]",–
O=C(CCN1C(=O)c2ccccc2C1=O)C1=NN[C@@H]2C(=O)N(c3ccc(F)cc3)C(=O)[C@H]12,"inconclusive: 89.1 µM [inhibitor, single point]",–
CCN(Cc1ccccc1)c1ccc(/C=N/NC(=O)c2cccc(S(=O)(=O)N3CCOCC3)c2)cc1,–,inactive: -5.6%
COc1ccc(CCNC(=O)C2CCN(C(=O)c3ccc(Cl)cc3)CC2)cc1OC,–,inactive: 9.01%
Cc1ccsc1/C=N\NC(=O)c1cc(C(C)(C)C)[nH]n1,–,inactive: 2.89% [at 57.1 µM]
O=C(C1COc2ccccc2O1)N1CCN(c2ccc(F)cc2)CC1 (configuration not stated),–,inactive: 9.06%
NNC(=O)c1ccc(C(=O)N(c2ccccc2)c2ccccc2)cc1,–,inactive: -6.06%
CCCC1C2C(=O)N(c3ccccc3OC)C(=O)C2ON1c1ccccc1 (configuration not stated),"inconclusive: 39.8 µM [inhibitor, single point]",–
Cc1ccc(NC(=S)NC(=O)c2c(-c3ccccc3Cl)noc2C)cc1,"inconclusive: 39.8 µM [inhibitor, partial curve]",–
O=C(Cn1ncn2nc(-c3cccs3)cc2c1=O)NCc1cccc(Br)c1,–,inactive: 17.3%
Cc1nc(SCC(=O)CC(=O)OC(C)C)c(C#N)c(C)c1C,"inconclusive: 11.2 µM [inhibitor, partial curve, poor fit]",–

SMILES,Potency,"activity change, negative = inhibition"
Cc1cc(C)cc(NC(=S)NCc2cccs2)c1,"inconclusive: 17.8 µM [inhibitor, partial curve, poor fit]",–
COc1ccc(C2C3C=CCC(c4cccc(/C=C/c5ccccc5)c4)C3C(=O)N2Cc2ccccc2)cc1Cl (configuration not stated),–,inactive: 5.63%
CCCC(=O)NC(=S)Nc1c(C)cc(Br)cc1C,"inconclusive: 35.5 µM [inhibitor, single point]",–
CCN(CC)c1ccc2cc(-c3nc(-c4ccc(OC)cc4)cs3)c(=O)oc2c1,"inconclusive: 89.1 µM [inhibitor, single point]",–
CCOC(=O)Cc1csc(NC(=O)c2c(O)c3c(n(CC(C)C)c2=O)CCCC3)n1,"inconclusive: 89.1 µM [inhibitor, single point]",–
Cc1c(CCO)c(=O)[nH]n1S(=O)(=O)c1ccccc1,–,inactive: 18.2% [at 57.1 µM]
O=C(NCCc1ccc(F)cc1)c1ccc(S(=O)(=O)N2CCCC2)cc1,"inconclusive: 39.8 µM [inhibitor, single point]",–
O=C1CCSc2ccc(S(=O)(=O)Nc3ccc(Cl)c(C(F)(F)F)c3)cc2N1,–,inactive: 9.88%
NC(=O)c1ccc(N=Cc2c(O)ccc3ccccc23)cc1,–,inactive: 7.31%
COC(=O)c1ccc(-c2ccco2)n1Cc1cccc(C)c1,"inconclusive: 89.1 µM [inhibitor, single point]",–
C=C(C)CC1Nc2ccccc2NC1CC(=C)C (configuration not stated),"inconclusive: 44.7 µM [inhibitor, single point]",–
O=C(Nc1ccccc1C(F)(F)F)NC1(C(=O)N2CCOCC2)CCCCC1,"inconclusive: 63.1 µM [inhibitor, partial curve, poor fit]",–
COc1cccc(-c2nc(NC(C)C)c3ccccc3n2)c1O,–,inactive: -19.2%
COCCN(C(=O)CCl)C(C(=O)NC1CCCCC1)c1ccccc1C (configuration not stated),active: 28.2 µM,–
Cc1ccccc1S(=O)(=O)Cc1ccc(C(=O)N(C)C2CCCCC2)o1,active: 56.2 µM,–
COc1cccc(C2C(C#N)=C(N)Oc3cc(C)n(Cc4ccco4)c(=O)c32)c1 (configuration not stated),"inconclusive: 2.82 µM [inhibitor, partial curve, poor fit]",–
N#Cc1nc(-c2cccs2)oc1NCC1CCCO1 (configuration not stated),"inconclusive: 70.8 µM [inhibitor, single point]",–
CC(=O)Nc1ccc(NC(=S)NC(=O)C2CCCC2)cc1,"inconclusive: 50.1 µM [inhibitor, partial curve]",–
O=C(NCCN1C(=O)S/C(=C\c2ccc(Cl)c(Cl)c2)C1=O)C1COc2ccccc2O1 (configuration not stated),"inconclusive: 70.8 µM [inhibitor, single point]",–
COc1ccc2c(c1)nc(SCC(=O)c1ccc(Br)s1)n2C,"inconclusive: 35.5 µM [inhibitor, single point]",–
CCC(=O)NC(=S)Nc1cccc(NC(=O)c2ccccc2C)c1,"inconclusive: 39.8 µM [inhibitor, partial curve]",–
